± gives the standard deviation of the averaged measurements. Whole data set: some 33,000 sequences, median “E-score (dimensionless, -0.5 to 0.5)” near -0.049, cut for the highest 2% near 0.37. The list shows a part of the results.
tested on: T1, PmTbr T-box DNA-binding domain (GST fusion); experiment: PBM E-score of 8-mer (E-score (dimensionless, -0.5 to 0.5)); Tbr is Tbrain of the sea star Patiria miniata (Pm) or the sea urchin Strongylocentrotus purpuratus (Sp); higher = stronger binding preference; most listed sequences are background and not binding sites; conditions: the construct has about 5 more residues each side
T1 sequence: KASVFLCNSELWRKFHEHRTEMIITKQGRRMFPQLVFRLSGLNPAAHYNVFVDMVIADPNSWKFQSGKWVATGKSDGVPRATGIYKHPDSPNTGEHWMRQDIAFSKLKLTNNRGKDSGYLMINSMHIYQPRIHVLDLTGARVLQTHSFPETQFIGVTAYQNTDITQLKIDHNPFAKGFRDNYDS
Outline: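 GST-fused Tbr T-box DNA-binding domains (the whole T-box plus about five flanking residues) were expressed in BL21 E. coli at 20 °C and purified by glutathione affinity chromatography. Universal Agilent oligonucleotide arrays were made double-stranded by primer extension, incubated with 200 nM protein in PBS (pH 7.5), then scanned and quantified. Every ungapped 8-mer was scored from probe intensities. The Universal PBM Analysis Suite gave each word an enrichment E-score, averaged over duplicate arrays.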

Question: CATTGCGC was tested. Which “PBM E-score of 8-mer” value did it give?
Answer: -0.0924 ± 0.053

Question: For AATTCCCT, which “PBM E-score of 8-mer” value is on record?
Answer: -0.123 ± 0.0042

Question: With GGCACCAC as the sequence, how does the “PBM E-score of 8-mer” value read?
Answer: 0.225 ± 0.022

Question: How did the “PBM E-score of 8-mer” value turn out when TAAGTATA was run?
Answer: -0.177 ± 0.089

Question: For GCGAGTAA, which “PBM E-score of 8-mer” value is on record?
Answer: 0.106 ± 0.01

Question: Which “PBM E-score of 8-mer” value does the source give for ATAGACCA here?
Answer: -0.233 ± 0.0056

Question: With TCCCCAGA as the sequence, how does the “PBM E-score of 8-mer” value read?
Answer: -0.207 ± 0.12

Question: Which “PBM E-score of 8-mer” value does the source give for ATCACCGA here?
Answer: 0.145 ± 0.011

Question: With AATATATG as the sequence, how does the “PBM E-score of 8-mer” value read?
Answer: -0.0917 ± 0.095

Question: For ACACGGGC, which “PBM E-score of 8-mer” value is on record?
Answer: -0.108 ± 0.0085

Question: With AGTACTCC as the sequence, how does the “PBM E-score of 8-mer” value read?
Answer: -0.28 ± 0.033

Question: With CGTCAGCA as the sequence, how does the “PBM E-score of 8-mer” value read?
Answer: 0.184 ± 0.024

Question: GATCTAAC was tested. Which “PBM E-score of 8-mer” value did it give?
Answer: -0.106 ± 0.013

Question: Which “PBM E-score of 8-mer” value does the source give for AATTTTCT here?
Answer: -0.253 ± 0.071

Question: How did the “PBM E-score of 8-mer” value turn out when AACAGTCT was run?
Answer: -0.164 ± 0.086

Question: For ATTTGAAC, which “PBM E-score of 8-mer” value is on record?
Answer: -0.162 ± 0.051

Question: How did the “PBM E-score of 8-mer” value turn out when ATAAATCC was run?
Answer: -0.167 ± 0.052

Question: For AACAAAGT, which “PBM E-score of 8-mer” value is on record?
Answer: 0.0688 ± 0.018

Question: How did the “PBM E-score of 8-mer” value turn out when CCCGATTC was run?
Answer: -0.383 ± 0.017

Question: ACACTGAC was tested. Which “PBM E-score of 8-mer” value did it give?
Answer: 0.209 ± 0.018

Question: Which “PBM E-score of 8-mer” value does the source give for CTTCGTCA here?
Answer: 0.276 ± 0.0035

Question: How did the “PBM E-score of 8-mer” value turn out when CGATACAC was run?
Answer: 0.0423 ± 0.075

Question: With CCCGCCAC as the sequence, how does the “PBM E-score of 8-mer” value read?
Answer: 0.203 ± 0.013

Question: Which “PBM E-score of 8-mer” value does the source give for AAAGGGCG here?
Answer: -0.0142 ± 0.031

Question: With TACGCCAA as the sequence, how does the “PBM E-score of 8-mer” value read?
Answer: -0.111 ± 0.024

Question: How did the “PBM E-score of 8-mer” value turn out when CGCCGAGA was run?
Answer: -0.0564 ± 0.035

Question: For CATCAGCA, which “PBM E-score of 8-mer” value is on record?
Answer: -0.0372 ± 0.033

Question: How did the “PBM E-score of 8-mer” value turn out when CGTGGCTA was run?
Answer: -0.139 ± 0.056

Question: ACCGTTCG was tested. Which “PBM E-score of 8-mer” value did it give?
Answer: 0.0195 ± 0.018

Question: How did the “PBM E-score of 8-mer” value turn out when CATTGGGA was run?
Answer: -0.109 ± 0.052

Question: For AATCAATA, which “PBM E-score of 8-mer” value is on record?
Answer: -0.205 ± 0.0079

Question: Which “PBM E-score of 8-mer” value does the source give for GATCCATC here?
Answer: -0.199 ± 0.021

Question: With ACGAAGAC as the sequence, how does the “PBM E-score of 8-mer” value read?
Answer: 0.054 ± 0.017

Question: For CGCTCTGA, which “PBM E-score of 8-mer” value is on record?
Answer: -0.133 ± 0.034

Question: How did the “PBM E-score of 8-mer” value turn out when CCCCGGTC was run?
Answer: -0.195 ± 0.059

Question: How did the “PBM E-score of 8-mer” value turn out when AACCAATA was run?
Answer: -0.0877 ± 0.084

Question: With AAGTGTTG as the sequence, how does the “PBM E-score of 8-mer” value read?
Answer: 0.437 ± 0.006

Question: Which “PBM E-score of 8-mer” value does the source give for CCCCTCCG here?
Answer: 0.137 ± 0.019

Question: How did the “PBM E-score of 8-mer” value turn out when AACGAACC was run?
Answer: -0.0722 ± 0.016

Question: With TACAGTCA as the sequence, how does the “PBM E-score of 8-mer” value read?
Answer: -0.0962 ± 0.012

Question: Which “PBM E-score of 8-mer” value does the source give for CCAGTTGC here?
Answer: 0.15 ± 0.024

Question: Which “PBM E-score of 8-mer” value does the source give for TGCCCCCA here?
Answer: -0.185 ± 0.011

Question: ACAGCGAA was tested. Which “PBM E-score of 8-mer” value did it give?
Answer: -0.177 ± 0.02

Question: TGAGAGCA was tested. Which “PBM E-score of 8-mer” value did it give?
Answer: 0.1022 ± 0.00097

Question: ATCATTAA was tested. Which “PBM E-score of 8-mer” value did it give?
Answer: -0.232 ± 0.069

Question: For AAATCTGT, which “PBM E-score of 8-mer” value is on record?
Answer: 0.217 ± 0.089

Question: Which “PBM E-score of 8-mer” value does the source give for CAGTGTTC here?
Answer: -0.0572 ± 0.047

Question: Which “PBM E-score of 8-mer” value does the source give for ATCTCGTC here?
Answer: 0.28202 ± 8.5e-05

Question: Which “PBM E-score of 8-mer” value does the source give for CCACTGCG here?
Answer: 0.0204 ± 0.036

Question: For AGCCCAAG, which “PBM E-score of 8-mer” value is on record?
Answer: -0.148 ± 0.064

Question: With AAAATAGT as the sequence, how does the “PBM E-score of 8-mer” value read?
Answer: 0.0057 ± 0.03

Question: ACAAGCGA was tested. Which “PBM E-score of 8-mer” value did it give?
Answer: 0.023 ± 0.029

Question: For GAGCGGCC, which “PBM E-score of 8-mer” value is on record?
Answer: -0.139 ± 0.043

Question: How did the “PBM E-score of 8-mer” value turn out when CCTGATAC was run?
Answer: -0.223 ± 0.059

Question: How did the “PBM E-score of 8-mer” value turn out when CAAGAGGC was run?
Answer: -0.004 ± 0.008

Question: With GATCTCTA as the sequence, how does the “PBM E-score of 8-mer” value read?
Answer: -0.0709 ± 0.022

Question: With CCTTCGAC as the sequence, how does the “PBM E-score of 8-mer” value read?
Answer: 0.0797 ± 0.032

Question: How did the “PBM E-score of 8-mer” value turn out when ACTTAACG was run?
Answer: 0.232 ± 0.072

Question: With CACGCTGC as the sequence, how does the “PBM E-score of 8-mer” value read?
Answer: 0.199 ± 0.03

Question: AGGTCCAC was tested. Which “PBM E-score of 8-mer” value did it give?
Answer: -0.228 ± 0.0069

Question: With AAAGCGGT as the sequence, how does the “PBM E-score of 8-mer” value read?
Answer: -0.0754 ± 0.039

Question: How did the “PBM E-score of 8-mer” value turn out when ATGTTCGC was run?
Answer: 0.142 ± 0.033

Question: Which “PBM E-score of 8-mer” value does the source give for CACCTATG here?
Answer: 0.429 ± 0.011

Question: ACCTGTCA was tested. Which “PBM E-score of 8-mer” value did it give?
Answer: 0.367 ± 0.013

Question: For CATGTTCC, which “PBM E-score of 8-mer” value is on record?
Answer: -0.131 ± 0.022

Question: Which “PBM E-score of 8-mer” value does the source give for GCGTGCTA here?
Answer: 0.261 ± 0.0046

Question: CTGCTCTA was tested. Which “PBM E-score of 8-mer” value did it give?
Answer: -0.0917 ± 0.04

Question: How did the “PBM E-score of 8-mer” value turn out when ATAGATGG was run?
Answer: -0.267 ± 0.042

Question: CGGCACGA was tested. Which “PBM E-score of 8-mer” value did it give?
Answer: -0.149 ± 0.008

Question: For ACACCTAG, which “PBM E-score of 8-mer” value is on record?
Answer: 0.462 ± 0.0066

Question: How did the “PBM E-score of 8-mer” value turn out when CAATTATA was run?
Answer: -0.177 ± 0.069

Question: Which “PBM E-score of 8-mer” value does the source give for CGCCTTTA here?
Answer: 0.219 ± 0.0073

Question: CGGTAGTA was tested. Which “PBM E-score of 8-mer” value did it give?
Answer: -0.144 ± 0.021

Question: GCTTGTGA was tested. Which “PBM E-score of 8-mer” value did it give?
Answer: 0.187 ± 0.0082

Question: With CCAGTCTA as the sequence, how does the “PBM E-score of 8-mer” value read?
Answer: -0.108 ± 0.001

Question: ACGGGTGC was tested. Which “PBM E-score of 8-mer” value did it give?
Answer: 0.207 ± 0.018

Question: How did the “PBM E-score of 8-mer” value turn out when GCTGCCTA was run?
Answer: -0.121 ± 0.043

Question: For AAATCTAC, which “PBM E-score of 8-mer” value is on record?
Answer: 0.00035 ± 0.005

Question: With ACCTATCC as the sequence, how does the “PBM E-score of 8-mer” value read?
Answer: -0.0926 ± 0.076

Question: Which “PBM E-score of 8-mer” value does the source give for CATGACTA here?
Answer: -0.312 ± 0.035

Question: For AATTAATG, which “PBM E-score of 8-mer” value is on record?
Answer: -0.162 ± 0.09

Question: Which “PBM E-score of 8-mer” value does the source give for AAATTTTC here?
Answer: -0.0378 ± 0.12

Question: How did the “PBM E-score of 8-mer” value turn out when CCTGTTCA was run?
Answer: 0.122 ± 0.036

Question: Which “PBM E-score of 8-mer” value does the source give for CACTTAGC here?
Answer: 0.315 ± 0.011

Question: For ACTTGTGG, which “PBM E-score of 8-mer” value is on record?
Answer: 0.196 ± 0.014

Question: With CCCACAAG as the sequence, how does the “PBM E-score of 8-mer” value read?
Answer: -0.268 ± 0.0069
